Assay results from publication PMC5943604.
Read-outs that look alike come from different tables or passages of the source. Results are given in words; binding and its absence hold for the method and conditions named. Binding seen in cells or lysates may run through a third protein. Some entries that bind do so weakly or less than the wild type. For some assays here: Tags and fused reporters may be left off the sequences shown.

Amino acid sequences for entries named in this document (tags omitted).
UniProt P40763: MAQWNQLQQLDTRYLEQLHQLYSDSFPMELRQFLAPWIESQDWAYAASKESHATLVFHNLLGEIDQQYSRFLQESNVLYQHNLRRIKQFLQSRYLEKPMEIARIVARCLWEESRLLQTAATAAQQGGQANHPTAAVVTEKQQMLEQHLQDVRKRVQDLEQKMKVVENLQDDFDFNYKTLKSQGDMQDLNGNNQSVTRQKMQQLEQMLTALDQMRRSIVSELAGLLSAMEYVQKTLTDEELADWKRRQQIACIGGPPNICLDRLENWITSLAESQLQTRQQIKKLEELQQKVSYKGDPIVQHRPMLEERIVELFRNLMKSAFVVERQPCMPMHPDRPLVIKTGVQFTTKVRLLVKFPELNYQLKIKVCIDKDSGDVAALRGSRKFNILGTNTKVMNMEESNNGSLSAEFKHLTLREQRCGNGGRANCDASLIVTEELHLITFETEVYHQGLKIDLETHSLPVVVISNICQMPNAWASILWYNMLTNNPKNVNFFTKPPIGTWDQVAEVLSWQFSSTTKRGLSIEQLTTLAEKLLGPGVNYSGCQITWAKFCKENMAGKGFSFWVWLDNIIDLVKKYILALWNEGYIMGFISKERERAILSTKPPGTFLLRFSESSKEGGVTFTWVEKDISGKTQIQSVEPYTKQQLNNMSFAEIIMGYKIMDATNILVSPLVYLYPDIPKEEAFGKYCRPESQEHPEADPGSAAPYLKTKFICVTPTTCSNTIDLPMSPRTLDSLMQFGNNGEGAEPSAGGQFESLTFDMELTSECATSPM

Columns and labels:
Experiment in all cases: co-IP; lysates of HEK293 cells expressing tagged OCIAD2 or Asrij constructs, incubated 4 hours with Protein G sepharose beads coated with antibodies, washed, Western blot for the endogenous partner
[1] = target: T1, OCIAD2_Hph-dsRED (UniProt Q9D8W7)
T1 sequence: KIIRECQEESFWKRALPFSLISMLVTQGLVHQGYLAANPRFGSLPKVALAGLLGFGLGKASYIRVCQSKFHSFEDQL

[2] = target: T2, OCIAD2_FL-EGFP (UniProt Q9D8W7)
T2 sequence: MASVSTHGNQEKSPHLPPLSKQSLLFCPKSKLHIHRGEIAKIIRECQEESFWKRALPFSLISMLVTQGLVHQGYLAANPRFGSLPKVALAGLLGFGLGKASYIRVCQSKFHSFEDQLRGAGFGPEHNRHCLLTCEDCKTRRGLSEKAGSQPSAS

[3] = target: T3, OCIAD2_C-dsRed (UniProt Q9D8W7)
T3 sequence: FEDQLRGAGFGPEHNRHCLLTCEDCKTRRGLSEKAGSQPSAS

[4] = target: T4, OCIAD2_N-EGFP (UniProt Q9D8W7)
T4 sequence: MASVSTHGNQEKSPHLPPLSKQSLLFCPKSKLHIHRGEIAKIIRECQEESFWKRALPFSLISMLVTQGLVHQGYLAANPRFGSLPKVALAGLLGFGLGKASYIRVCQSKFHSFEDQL

[5] = target: T1, OCIAD2_Hph-dsRED; remark: listed apart in the source
[6] = target: T2, OCIAD2_FL-EGFP; remark: listed apart in the source
[7] = target: T3, OCIAD2_C-dsRed; remark: listed apart in the source
[8] = target: T4, OCIAD2_N-EGFP; remark: listed apart in the source

Molecule | binding [1] | binding [2] | binding [3] | binding [4] | binding [5] | binding [6] | binding [7] | binding [8]
STAT3 (from UniProt P40763 1-770) | binds | binds | no binding | binds |  |  |  | 
endogenous OCIAD1 (protein, UniProt Q9NX40 1-245) MNGRADFREPNAEVPRPIPHIGPDYIPTEEERRVFAECNDESFWFRSVPLAATSMLITQGLISKGILSSHPKYGSIPKLILACIMGYFAGKLSYVKTCQEKFKKLENSPLGEALRSGQARRSSPPGHYYQKSKYDSSVSGQSSFVTSPAADNIEMLPHYEPIPFSSSMNESAPTGITDHIVQGPDPNLEESPKRKNITYEELRNKNRESYEVSLTQKTDPSVRPMHERVPKKEVKVNKYGDTWDE |  |  |  |  | binds | binds | no binding | binds
